In the supplement of paper PMC11417369:
± gives the standard deviation of the averaged measurements. This is one part of the list.

Test system: PfAP2-EXP AP2 domain (GST-tagged)
Assay: gcPBM binding intensity (ln(normalized median fluorescence intensity)); higher = stronger DNA binding
Outline: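 Binding of GST-tagged P. falciparum DNA-binding domains, expressed in E. coli and used at about 25 μg on average, was carried out for 1 h in 1× PBS containing 1% milk, 0.2 mg/ml BSA, 0.5% salmon testes DNA and 0.03% Triton X-100. The target was an Agilent 4 × 180k array of primer-extended double-stranded 36-bp intergenic genomic probes plus negative controls, read with Alexa488 anti-GST antibody at 488 nm. Binding intensity is the highest Masliner-normalised natural-log median intensity across replicate spots of either probe orientation.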

Sequence	gcPBM binding intensity (ln)
AAAAAAGAAAAAAGGACACACATAAATATACTCACG [CACACA_site2904]	8.6 ± 0.57
ATAATGTTTCTTTCAACACACAAAAAATGAACACAT [CACACA_site1552]	8.78 ± 0.53
CATACATACGGACACACACACATATATATATATATA [CACACA_site5598]	10.2 ± 0.41
TATATAAGCGCATGCACACGCAAAGGTATATAAATA [CACACA_site622]	9.29 ± 0.28
AAAAAAAAAAAATAGACCTCCTAAGCAAAAGAAAAA [GTGCAC_negctrl_site634]	8.37 ± 0.53
ATTCTATTATAATATTCACACACTAACGTAAATCAT [CACACA_site2750]	8.69 ± 0.42
TAATGACTGAAAAATTGTACATATGTATATATGTAT [XGTACX_site2415]	8.41 ± 0.29
TATACATACATACATACACACACACCGATATATATA [CACACA_site7896]	8.77 ± 0.42
ATAATTTTCCATATTTGTACATATTTTTTTCCCTTG [XGTACX_site8146]	8.9 ± 0.41
CGACTTTTAAAATATACACACATATATATATATATA [CACACA_site825]	10.2 ± 0.33
AATACATAAATATTTTGTACATATTATATAAAATAT [XGTACX_site1627]	8.41 ± 0.37
GAATGTATTCATAAATGTACTTATAATATTATAATA [XGTACX_site3466]	8.46 ± 0.23
ATAACATACATAACAACACACAATATTTATATGTAT [CACACA_site210]	8.54 ± 0.38
ATAAATGAAGATAAATTAAAAAAAAAAAAAAAAAAA [CACACA_negctrl_site992]	8.11 ± 0.51
CTTGTACCTAGAAATACACACAATTATATAACTTAT [CACACA_site2838]	8.49 ± 0.35
ATGAAAAAAAAAAAAAAAAAAAAAAAAAAAAAAAAA [CACACA_negctrl_site1405]	8.07 ± 0.3
ATATATATTTAATTTACACACAAAAAAAATTGTTGG [CACACA_site961]	8.35 ± 0.39
ACTTTTTAATAATAATAATTATATATATATATATAT [TGCATGCA_negctrl_site459]	9.97 ± 0.34
CCACATGAGATGATTACACACATATAAATATTTACA [CACACA_site6222]	8.49 ± 0.39
TATAAGAAAATAATGTGTACTAAATAATAAATGCAT [XGTACX_site1204]	8.82 ± 0.29
AGAATATATATAATAGTGCAATGTACAATGAACAAA [GTGCAC_site9577]	8.9 ± 0.29
TTAAATACTTTTCGAAGTACATTATATATATAATAT [XGTACX_site7530]	8.35 ± 0.4
CGCAACACTATTTGGGTGCTCTTCAAAAAAAAAAAA [GTGCAC_site9598]	8.12 ± 0.43
ACGAATTAAATGGATTAATATATATATGTATATTTA [CACACA_negctrl_site1512]	8.14 ± 0.32
